# Results reported in publication PMC10726135.
# This is one part of the list. At the low end of the ranking the order means little. The protein was read in a cell extract, so binding may be indirect.
# Molecular target: T1, HNF4alpha2 (COS-7 nuclear extract) (UniProt P41235)
# T1 sequence: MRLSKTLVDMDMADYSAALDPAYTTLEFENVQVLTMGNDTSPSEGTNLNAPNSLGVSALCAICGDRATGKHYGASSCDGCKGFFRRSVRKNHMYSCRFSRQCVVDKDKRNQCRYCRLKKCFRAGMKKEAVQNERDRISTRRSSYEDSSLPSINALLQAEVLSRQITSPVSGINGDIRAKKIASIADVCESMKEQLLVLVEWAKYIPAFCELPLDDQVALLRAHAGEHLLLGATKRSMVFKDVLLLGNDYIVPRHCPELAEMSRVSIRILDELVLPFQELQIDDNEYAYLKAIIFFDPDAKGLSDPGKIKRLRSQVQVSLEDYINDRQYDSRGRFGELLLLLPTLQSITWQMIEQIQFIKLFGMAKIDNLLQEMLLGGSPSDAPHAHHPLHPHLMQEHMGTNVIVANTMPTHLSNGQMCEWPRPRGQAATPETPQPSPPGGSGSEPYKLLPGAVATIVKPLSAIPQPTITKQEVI
# Experiment: protein-binding microarray
# Conditions: COS-7 nuclear extract on double-stranded Agilent 4x180k PBM; binding buffer, salt, pH and temperature not given; high values mean tight binding; double strand, one strand shown; sequences stand for … in …GCCTAGGGAGATTAGAGTATCGGTCGA
row,Sequence,binding signal (log2 normalized intensity)
1,TACCATGGGAGACCTCAGGGGTCATCAGAT,2.49
2,AAAGTCCACCGTGGTGTAGAGGCCCTGCAG,-1.22
3,TTGTAGCCAAACTCACAGCTTTTATGTCAA,-0.888
4,TACTAACTGGACTTTATCTACCATTAGTCT,1.48
5,GCCTTTCTAGAACCAGAATTCCAGAGAAGC,-1.15
6,GCCTGCTTTCCACTCCCATTACTTCTGTTT,0.993
7,GAAGGAGAGAGAGGGAGAGTGGCCTTTGGA,2.89
8,CAGGCAGACTGGCTCCGCTGCTGCAGAGCA,-0.954
9,GAGTACTGTCTCTTATCAGCCATCTCCCCA,3.2
10,GCCACGCACACCTGGATCTTCCAGGCCTCC,-1.16
11,CTGAGGTATTTTTGCAATCCTCCACTCTCC,-0.598
12,GGTGTACAAGGAGTCTCCACTATGACCTGT,2.66
13,AGGGAATGAAGCTAAAAGAAGTCCAAGGAC,-0.977
14,GACAAAGTTCTGTCCTTTGTCCCCCACCTG,4.72
15,CAAGCGTCAGTCATACAGAGCTGTCACGCA,-1.09
16,AGGGAGGTAAAAGTCCAACAGGGTTAAAAG,2.23
17,AGCCACCGCGCCCCGCCCCCAGTGCACCTT,5.11
18,CTTCTGTTCAGGAGTTGTCTGTCCAGTTCA,1.56
19,GGGAGATAAGGTGGAAAGACAAGTTGAAGC,-1.01
20,AACAAAAGCAGAGGAGTGGCCATGATGCCA,-1.28
21,GGGCAGGTGAGAGGGCTCTGTCTGCTGGGC,-1.08
22,GGGCAAAGTCAGGTACTGGTAGCCTGGGCC,-0.982
23,GCCCAAAGGTCACCTCTTCAGATAGCCTTT,2.91

row,Sequence,binding signal (log2 normalized intensity)
1,CAGGCCATCACACTCCTACCCATTCTTCAG,-1.14
2,GTATACTATTTGCTAATGTCCTTTGGAGTG,2.12
3,ACCTTTTGGACCACAGAGTGACCTGGTATT,2.53
4,CTCTCAGGTCAAAGTTTGCCTTGACCTCTA,4.34
5,CTGTTGGTGACTGACCCTGATCCCTCCCTG,3.18
6,GATTCCCCAATGCAGTACTATGCAATAACC,0.881
7,GGAATATTGCCCCCTAATGGTATTTATTTT,2.7
8,GAACTGTAACCTCAAAGGAGGTCAGAACTG,0.393
9,GGACGAAGGTCACTAATTGGAAGCTCTTTC,1.27
10,TGCCTGGCATCTAACCTTCGTCCTTGCCCC,3.82
11,AAGAAGGCAGACTCAAGATAGAGGGCTGCC,-1.14
12,GTGTTCGCCCCTAGGACACGCAGTTGGAGA,-1.03
13,AAGGTTATTTGCTCACCAGTGACCAATAAT,0.552
14,CAAGCCTAGTTTTGATTATCACTACTCCTC,-0.851
15,CACAGCTCGACCTTTGACCTTCGGCTTCCC,8.84
16,TGCCCTCTGGTGGCACACAGAGGACGTCAG,-0.0234
17,AAAAGCCCTAGTTTTTCTTCCGGTCACATA,1.19
18,ACCAAAACCAAGATAGTGACGGAGGTGACC,1.18
19,ATTCCTGGGAACTGCGGACATAGCTTGCCA,-1.15
20,ATTTGGAAGTAAGAACCCCACTATTCAGGA,1.98
21,GCAAGGAAATAAAAGAGCCTGAGCCACTTC,-1.12
22,TCAACAAGACCCTGCCCTTTCCCCCGCCCT,4.89
23,CCTCTGCCTTTCAGGCAGGAGACGATGGTT,-0.828
